According to the supplement of paper PMC8728848:
The other results are listed elsewhere or left out.

Columns and labels:
Assay in all cases: glycan array binding signal (z-score within array); higher = stronger binding
Details in all cases: glycan notation: IUPAC condensed, linker removed
[1] = target: Man(a1-2)Man(a1-3)[Man(a1-2)Man(a1-6)]Man
Procedure, shortened: (§1)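 Columns mapping to the same glycan were averaged after glycan names were converted to IUPAC-condensed notation. The data come from 3228 arrays in the Consortium for Functional Glycomics database, limited to those with an available protein sequence. Binding is reported as a within-array Z-score averaged across arrays of one protein sequence and across linkers.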

[2] = target: Man(a1-2)Man(a1-3)[Man(a1-2)Man(a1-6)]Man(a1-6)[Man(a1-2)Man(a1-2)Man(a1-3)]Man
Procedure, shortened: as §1

[3] = target: Man(a1-2)Man(a1-3)[Man(a1-2)Man(a1-6)]Man(a1-6)[Man(a1-2)Man(a1-2)Man(a1-3)]Man(b1-4)GlcNAc(b1-4)GlcNAc
Procedure, shortened: as §1

[4] = target: Man(a1-2)Man(a1-3)[Man(a1-6)]Man(a1-6)[Man(a1-2)Man(a1-3)]Man(b1-4)GlcNAc(b1-4)GlcNAc
Procedure, shortened: as §1

[5] = target: Man(a1-2)Man(a1-6)[Man(a1-3)]Man(a1-6)[Man(a1-2)Man(a1-2)Man(a1-3)]Man
Procedure, shortened: as §1

[6] = target: Man(a1-2)Man(a1-6)[Man(a1-3)]Man(a1-6)[Man(a1-2)Man(a1-2)Man(a1-3)]Man(b1-4)GlcNAc(b1-4)GlcNAc
Procedure, shortened: as §1

Man(a1-3)[Man(a1-6)]Man = target: Man(a1-3)[Man(a1-6)]Man
Procedure, shortened: as §1

[7] = target: Man(a1-3)[Man(a1-6)]Man(a1-6)[Man(a1-2)Man(a1-3)]Man(b1-4)GlcNAc(b1-4)GlcNAc
Procedure, shortened: as §1

[8] = target: Man(a1-3)[Man(a1-6)]Man(a1-6)[Man(a1-3)]Man
Procedure, shortened: as §1

[9] = target: Man(a1-3)[Man(a1-6)]Man(a1-6)[Man(a1-3)]Man(b1-4)GlcNAc(b1-4)GlcNAc
Procedure, shortened: as §1

[10] = target: Man(a1-3)[Man(a1-6)]Man(b1-4)GlcNAc(b1-4)GlcNAc
Procedure, shortened: as §1

[11] = target: Man(a1-3)[Man(a1-6)]Man(b1-4)GlcNAc(b1-4)[Fuc(a1-6)]GlcNAc
Procedure, shortened: as §1

Man(a1-6)Man = target: Man(a1-6)Man
Procedure, shortened: as §1

Man(b1-4)GlcNAc = target: Man(b1-4)GlcNAc
Procedure, shortened: as §1

MurNAc(b1-4)GlcNAc = target: MurNAc(b1-4)GlcNAc
Procedure, shortened: as §1

Neu5Ac(a2-3)Gal = target: Neu5Ac(a2-3)Gal
Procedure, shortened: as §1

[12] = target: Neu5Ac(a2-3)Gal(b1-3)GalNAc
Procedure, shortened: as §1

[13] = target: Neu5Ac(a2-3)Gal(b1-3)GalNAc(b1-3)Gal(a1-4)Gal(b1-4)Glc
Procedure, shortened: as §1

[14] = target: Neu5Ac(a2-3)Gal(b1-3)GalNAc(b1-4)Gal(b1-4)Glc
Procedure, shortened: as §1

[15] = target: Neu5Ac(a2-3)Gal(b1-3)GalNAc(b1-4)[Neu5Ac(a2-3)]Gal(b1-4)Glc
Procedure, shortened: as §1

[16] = target: Neu5Ac(a2-3)Gal(b1-3)GalNAc(b1-4)[Neu5Ac(a2-8)Neu5Ac(a2-3)]Gal(b1-4)Glc
Procedure, shortened: as §1

[17] = target: Neu5Ac(a2-3)Gal(b1-3)GalNAc6S
Procedure, shortened: as §1

[18] = target: Neu5Ac(a2-3)Gal(b1-3)GlcNAc
Procedure, shortened: as §1

[19] = target: Neu5Ac(a2-3)Gal(b1-3)GlcNAc(b1-2)Man
Procedure, shortened: as §1

[20] = target: Neu5Ac(a2-3)Gal(b1-3)GlcNAc(b1-2)Man(a1-3)[GlcNAc(b1-4)][Neu5Ac(a2-3)Gal(b1-3)GlcNAc(b1-2)Man(a1-6)]Man(b1-4)GlcNAc(b1-4)GlcNAc
Procedure, shortened: as §1

[21] = target: Neu5Ac(a2-3)Gal(b1-3)GlcNAc(b1-2)Man(a1-3)[Neu5Ac(a2-3)Gal(b1-3)GlcNAc(b1-2)Man(a1-6)]Man(b1-4)GlcNAc(b1-4)GlcNAc
Procedure, shortened: as §1

[22] = target: Neu5Ac(a2-3)Gal(b1-3)GlcNAc(b1-2)[Neu5Ac(a2-3)Gal(b1-3)GlcNAc(b1-4)]Man(a1-6)[Neu5Ac(a2-3)Gal(b1-3)GlcNAc(b1-2)Man(a1-3)]Man(b1-4)GlcNAc(b1-4)GlcNAc
Procedure, shortened: as §1

[23] = target: Neu5Ac(a2-3)Gal(b1-3)GlcNAc(b1-3)Gal(b1-3)GlcNAc
Procedure, shortened: as §1

[24] = target: Neu5Ac(a2-3)Gal(b1-3)GlcNAc(b1-3)Gal(b1-4)GlcNAc
Procedure, shortened: as §1

[25] = target: Neu5Ac(a2-3)Gal(b1-3)GlcNAc(b1-3)GalNAc
Procedure, shortened: as §1

[26] = target: Neu5Ac(a2-3)Gal(b1-3)GlcNAc(b1-6)GalNAc
Procedure, shortened: as §1

[27] = target: Neu5Ac(a2-3)Gal(b1-3)GlcNAc6S
Procedure, shortened: as §1

[28] = target: Neu5Ac(a2-3)Gal(b1-3)[Fuc(a1-4)]GlcNAc
Procedure, shortened: as §1

[29] = target: Neu5Ac(a2-3)Gal(b1-3)[Fuc(a1-4)]GlcNAc(b1-3)Gal(b1-3)[Fuc(a1-4)]GlcNAc
Procedure, shortened: as §1

[30] = target: Neu5Ac(a2-3)Gal(b1-3)[Fuc(a1-4)]GlcNAc(b1-3)Gal(b1-4)[Fuc(a1-3)]GlcNAc
Procedure, shortened: as §1

[31] = target: Neu5Ac(a2-3)Gal(b1-3)[GlcNAc(b1-6)]GalNAc
Procedure, shortened: as §1

[32] = target: Neu5Ac(a2-3)Gal(b1-3)[Neu5Ac(a2-6)]GalNAc
Procedure, shortened: as §1

[33] = target: Neu5Ac(a2-3)Gal(b1-3)[Neu5Ac(a2-6)]GlcNAc(b1-3)[Fuc(a1-3)[Gal(b1-4)]GlcNAc(b1-6)]Gal(b1-4)Glc
Procedure, shortened: as §1

B1: BTL (Bryothamnion triquetrum) (protein)
chain: ADPICGSSGYSCTTPAILTPKSPGSFPSGYSKVIVTGVGGSYSVYIHRPDGFKVYKASEGGCASFGSYSGGGNSEVGKYGSGGTVVAVACK
glycan array binding signal (z-score) [1]: -0.275 | glycan array binding signal (z-score) [2]: -0.244 | glycan array binding signal (z-score) [3]: -0.245 | glycan array binding signal (z-score) [4]: -0.309 | glycan array binding signal (z-score) [5]: -0.277 | glycan array binding signal (z-score) [6]: -0.284 | glycan array binding signal (z-score) (Man(a1-3)[Man(a1-6)]Man): -0.23 | glycan array binding signal (z-score) [7]: -0.158 | glycan array binding signal (z-score) [8]: -0.276 | glycan array binding signal (z-score) [9]: -0.155 | glycan array binding signal (z-score) [10]: -0.033 | glycan array binding signal (z-score) [11]: 4.2 | glycan array binding signal (z-score) (Man(a1-6)Man): -0.213 | glycan array binding signal (z-score) (Man(b1-4)GlcNAc): -0.22 | glycan array binding signal (z-score) (MurNAc(b1-4)GlcNAc): -0.26 | glycan array binding signal (z-score) (Neu5Ac(a2-3)Gal): -0.268 | glycan array binding signal (z-score) [12]: -0.232 | glycan array binding signal (z-score) [13]: -0.201 | glycan array binding signal (z-score) [14]: -0.251 | glycan array binding signal (z-score) [15]: -0.221 | glycan array binding signal (z-score) [16]: -0.229 | glycan array binding signal (z-score) [17]: -0.194 | glycan array binding signal (z-score) [18]: -0.235 | glycan array binding signal (z-score) [19]: -0.242 | glycan array binding signal (z-score) [20]: -0.191 | glycan array binding signal (z-score) [21]: -0.243 | glycan array binding signal (z-score) [22]: -0.099 | glycan array binding signal (z-score) [23]: -0.209 | glycan array binding signal (z-score) [24]: -0.194 | glycan array binding signal (z-score) [25]: -0.259 | glycan array binding signal (z-score) [26]: -0.212 | glycan array binding signal (z-score) [27]: -0.24 | glycan array binding signal (z-score) [28]: -0.252 | glycan array binding signal (z-score) [29]: -0.235 | glycan array binding signal (z-score) [30]: -0.21 | glycan array binding signal (z-score) [31]: -0.206 | glycan array binding signal (z-score) [32]: -0.132 | glycan array binding signal (z-score) [33]: -0.2
